In paper PMC12040169 (PLOS Biology, 2025):
The list shows a part of the results.

The compounds below were run on T1, C. trachomatis L2/434/Bu expressing GFP (CTL2-GFP). Details: total inclusion area; 28.5 h, 10 µM; inhibitor.
T1 construct: L2/434/Bu GFP intracellular growth in HeLa cells
Set-up: species or system HeLa; C. trachomatis total inclusion area by high-content imaging, normalised to DMSO
Method in brief: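 Imaging read-out: GFP inclusions and Hoechst nuclei captured by high-content imaging after fixation. Inclusion area/number = chlamydial growth; nuclei count = host cell viability. MIC calculated per earlier method.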

Row | Compound | % of control remaining
1 | COc1ccc(C(NC(=O)[C@H]2CCCN2C(=O)Cc2cccs2)c2ccccc2C)cn1 (stereo partly drawn) [CBK075053] | 129.248
2 | O=C(CSc1ncn(-c2ccccc2)n1)Nc1c(Cl)cccc1Cl [CBK269683] | 69.3461
3 | CCCC(=O)Nc1ccc(C(=O)N2CCN(CC)CC2)cc1 [CBK304218] | 65.119
4 | CCC(Oc1ccc(C)cc1)C(=O)Nc1ccc(S(N)(=O)=O)cc1 (stereo not drawn) [CBK270036] | 99.1698
5 | Cc1onc(-c2ccccc2)c1CNC(=O)c1cccc(C(F)(F)F)c1 [CBK144079] | 102.939
6 | NC(CC(=O)O)c1ccc(F)c(Oc2ccccc2)c1 (stereo not drawn) [CBK286912] | 85.7137
7 | CCn1c(CN2CCCC2c2nc(N(C)C)ncc2-c2ccc(F)cc2)nc2ccccc21 (stereo not drawn) [CBK285974] | 86.8996
8 | CCc1nn(CC(=O)N2CCCCCC2)c(=O)c2cc3occc3n12 [CBK283677] | 97.6326
9 | Cc1cccc(C)c1NC(=O)c1c(NC(=O)c2ccco2)sc2c1CCC(C)C2 (stereo not drawn) [CBK265550] | 90.7251
10 | Cc1ccc(/C=N/N=C2/N=C(O)C(CC(=O)Nc3ccccc3C(F)(F)F)S2)o1 (stereo not drawn) [CBK263731] | 93.8547
11 | O=C(NC(C(=O)O)C12CC3CC(CC(C3)C1)C2)c1ccc([N+](=O)[O-])cc1 (stereo not drawn) [CBK261405] | 99.809
12 | COCCCNC(=O)C1CCCN(c2nc3c(-c4ccc(C)cc4)csc3c(=O)[nH]2)C1 (stereo not drawn) [CBK215548] | 118.056
13 | O=C(Nc1cccc(-c2nc3ncccc3o2)c1)c1cccc(OCc2ccccc2)c1 [CBK263126] | 95.5092
14 | Cc1cccnc1NC(=O)C(C)n1cc([N+](=O)[O-])cn1 (stereo not drawn) [CBK268918] | 75.4847
15 | COc1ccn2c(CCCN(C)C3Cc4ccccc4C3)nc(-c3ccc4c(c3)OCO4)c2c1 [CBK036303] | 107.307
16 | COc1ccc(CCN2CCCCC2Cn2cncn2)cc1 (stereo not drawn) [CBK305095] | 97.3993
17 | COC(=O)c1ccc2oc(-c3cc(C(O)CNC(C)(C)C)ccc3OC(C)C)cc(=O)c2c1 (stereo not drawn) [CBK009944C] | 56.6454
18 | O=C(NCC1COc2ccccc2O1)N1CCN(c2ccc(F)cc2)CC1 (stereo not drawn) [CBK156387] | 84.7019
19 | O=C(c1ccc(F)cc1)[C@H]1CCCN(C(=O)c2ccco2)C1 [CBK284328] | 72.7561
20 | NS(=O)(=O)c1ccc(CCNS(=O)(=O)c2ccccc2[N+](=O)[O-])cc1 [CBK264369] | 106.354
21 | Cc1c(C)n(C)c2ccc(C(=O)NCCC(=O)N3CCOCC3)cc12 [CBK281669] | 82.4083
22 | CC(C)Nc1cncc(Sc2cccc(N)c2)n1 [CBK091434] | 91.7879
23 | O=C(C1CC1)N1CCC2(CC1)Nc1cccnc1-n1cccc12 [CBK284504] | 55.7549
24 | CC1(C)CC(=O)C2=C(C1)c1c(ccc3ccccc13)NC2c1ccc(N2CCC(Cc3ccccc3)CC2)c([N+](=O)[O-])c1 (stereo not drawn) [CBK262944] | 109.901
25 | CC1CN(Cc2c(C(C)C)[nH]c3ncccc23)CC(C)O1 (stereo not drawn) [CBK282900] | 102.981
26 | CCOCc1nc2c(c(NCCn3cccn3)n1)CCN(C(C)=O)CC2 [CBK307707] | 80.2899

Row | Compound | % of control remaining
27 | Brc1ccc(C2(c3nnc(C4CCCO4)o3)CCOCC2)cc1 (stereo not drawn) [CBK306258] | 73.9213
28 | CCN(CC)S(=O)(=O)c1ccc(Nc2nc3ccc(Cl)cc3n3cnnc23)cc1 [CBK268259] | 110.22
29 | COCc1nnc(S)n1-c1cccc(OC)c1 [CBK288424] | 87.9194
30 | CC(C)CC1C(=O)NCCN1Cc1ccccc1 (stereo not drawn) [CBK005336] | 107.442
31 | CCC1c2cccn2CCN1C(=O)c1cc(-c2ccccn2)n[nH]1 (stereo not drawn) [CBK283224] | 116.557
32 | CCc1nc2ccc(C(=O)Nc3cccc(NS(C)(=O)=O)c3)cn2c1N(C)CCCc1ccccc1 [CBK146670] | 77.715
33 | COc1ccc(NC(=O)c2ccc(N(C)Cc3ccccc3)c([N+](=O)[O-])c2)cc1 [CBK268094] | 77.4242
34 | O=C(CCn1cncn1)N[C@H]1C2CCCCC2[C@@H]1c1ccccc1 (stereo partly drawn) [CBK282970] | 93.8964
35 | Cc1cc(C2CCCN(C(=O)CC3OCCc4sccc43)C2)n[nH]1 (stereo not drawn) [CBK305241] | 83.2865
36 | Cc1nc2nc(-c3ccc(Cl)s3)cn2nc1C [CBK284565] | 59.5932
37 | COCCC(=O)NC(Cc1ccsc1)c1nc(C)c(C)s1 (stereo not drawn) [CBK284774] | 127.492
38 | CN(C)CCN(C)c1nc(-c2ccc(C(=O)O)cc2)cn2ccnc12 [CBK037880] | 110.617
39 | N#Cc1sc(NC(=O)c2cccc(Br)c2)nc1Cl [CBK017468] | 2.217
40 | COc1ccc(Cn2nc3nnc(-c4ccccc4)c(-c4ccccc4)n3c2=O)cc1 [CBK286180] | 119.423
41 | CC(=O)Nc1ccc(Nc2ccc([N+](=O)[O-])cc2[N+](=O)[O-])cc1 [CBK260886] | 91.3937
42 | CC(C)(C)CC(=O)N1CCCC1c1n[nH]cc1-c1ccncc1 (stereo not drawn) [CBK283430] | 78.3309
43 | O=C(c1ccno1)n1nccc1-c1cc(-c2ccccc2)no1 [CBK022074] | 93.5512
44 | CC(=O)Nc1ccccc1-c1nc2ccccc2nc1OCC(=O)c1ccc(Cl)cc1 [CBK266269] | 122.803
45 | Cc1nc2cc(OCc3nc(C(=O)N(CCO)CCO)co3)ccc2s1 [CBK307684] | 51.7663
46 | CCCCCN1CCn2nc(CNc3cnccn3)cc2C1 [CBK306713] | 91.9545
47 | COc1ccc(CN2CCN(C(=O)c3ccccc3F)CC2)c(OC)c1 [CBK033601] | 102.794
48 | CC(=O)Nc1ccc(C(=O)NCc2ccc(OCC(F)(F)F)cc2)cc1 [CBK305732] | 97.5336
49 | Cc1cc(C)c2nc(NC(=O)c3ccc(=O)n(CC(=O)N(C)c4ccccc4)c3)sc2c1 [CBK286025] | 86.2323
50 | CC(C)C(=O)N1CCC(n2c(=O)oc3ccc(Cl)cc32)CC1 [CBK284339] | 61.9891
51 | Cc1cc2cc(C(=O)NCC3(N(C)C)CCN(C)CC3)ccc2o1 [CBK282623] | 72.875
52 | Cc1ccc(CCP(=O)(O)CN2CCOCC2)cn1 [CBK022176] | 110.556

Row | Compound | % of control remaining
53 | Cc1cn(CC(=O)N2CCCC3(CCN(C(=O)c4ccoc4)C3)C2)c(=O)[nH]c1=O (stereo not drawn) [CBK131634] | 79.7243
54 | Cn1ccnc1C1(O)CCN(C(=O)c2cc(F)cc(F)c2)CC1 [CBK283544] | 71.9298
55 | Cc1ccc(-c2noc([C@@H]3Cc4[nH]cnc4CN3C(=O)CCC(=O)O)n2)cc1 [CBK288958] | 105.708
56 | COc1ccc(S(=O)(=O)N(C)CC(=O)N2CCOCC2)cc1C [CBK267898] | 102.981
57 | O=C(O)CCc1ccc(S(=O)(=O)Nc2ccccc2Cc2ccccc2)cc1 [CBK295616] | 105.12
58 | Cc1nn(C)c(C)c1CCC(=O)NCC1CCN(c2ccccc2F)C1 (stereo not drawn) [CBK304357] | 94.2438
59 | Oc1c(C(Nc2cccnc2)c2cccs2)ccc2cccnc12 (stereo not drawn) [CBK268637] | 24.8575
60 | CC(=O)N1CCC(C(=O)NC(=O)Nc2ccccc2F)CC1 [CBK034848] | 81.0654
61 | CCN(CC)CCN1CCN(c2cc(-c3ccc4c(c3)OCO4)ncn2)CC1 [CBK037694] | 99.5818
62 | c1cnc(OC2CCN(CC3CCCCC3)CC2)c(OCCN2CCOCC2)n1 [CBK082941T] | 90.738
63 | COc1ccc(-c2cc(C(=O)Nc3nccs3)cnc2-c2ccc(Cl)cc2)cc1 [CBK037553] | 145.493
64 | O=C1CNC(=O)C2(C/C=C/C[C@H]3COCC[C@@H]3N1)CCN(C(=O)CCc1cccnc1)CC2 [CBK292051] | 103.345
65 | C[C@@H]1[C@H](c2ccccc2)OC(=O)N1C1CCN(S(=O)(=O)c2cccs2)CC1 [CBK043302] | 95.1596
66 | CC(CN1CCCC1)NC(=O)c1ccc2c(c1)ncn2C (stereo not drawn) [CBK281715] | 88.6307
67 | COc1ccc([C@@]23CC[C@@H](Nc4nc(-c5ccc(Br)cc5)cs4)C[C@@H]2N(C)CC3)cc1OC [CBK036543] | 15.0916
68 | CC(C)[C@@H](CO)Nc1cncc(-c2cccc(CO)c2)n1 [CBK065427] | 115.811
69 | CNC(=O)c1cc(S(=O)(=O)N(C2CC2)C2CCc3ccccc32)cn1C (stereo not drawn) [CBK305988] | 7.013
70 | O=C(O)C1CSC(c2ccc([N+](=O)[O-])cc2)N1 (stereo not drawn) [CBK260909] | 94.4334
71 | COc1cncc(-c2cncc(Nc3ccccc3)n2)c1 [CBK065435] | 97.689
72 | CC1CC1c1nnc(C2(c3ccc(Br)cc3)CCOCC2)o1 (stereo not drawn) [CBK304712] | 65.163
73 | COc1ccc(F)cc1-c1ccc(CC2(C(=O)NCc3cccs3)CCOCC2)cc1 [CBK285540] | 80.686
74 | Cn1nc2n(C)c(=O)c3ccc(C(=O)NC4CCCC4)cc3n2c1=O [CBK287811] | 87.2368
75 | Nc1ncc(-c2ccc(C(F)(F)F)cc2)c(C2CCCN(C(=O)C3CCCCC3)C2)n1 (stereo not drawn) [CBK285791] | 98.3948
76 | O=C(Nc1c(F)cccc1F)N(Cc1ccc2ccccc2c1)CC1CCNCC1 [CBK119480] | 98.8537
77 | O=C(NNC(=O)C1CCN(S(=O)(=O)c2ccc(Br)cc2)CC1)NC12CC3CC(CC(C3)C1)C2 [CBK266907] | 102.634
78 | N=C(N)NC(=N)Nc1ccc2c(c1)OCCO2 [CBK021572C] | 113.219
